# Test results from PubChem BioAssay AID651820 (National Center for Advancing Translational Sciences (NCATS), 2012).
# Several values for one entry are separate records, joined by “and”; a condition that tells them apart may be missing. Equal values may be shown once. Hit rate of the full screen: of about 340,000 compounds, about 12,000 (3.5%) were called active. Inconclusive means that the source gave no clear call. Such entries were picked first, then a sample of the others. Calls come from the whole dose curve; as a rule, active = well fitted inhibition curve with a large enough effect; inconclusive = small, poorly fitted or top-dose-only effect, or another doubt; inactive = no such curve, though single readings can be large or run the other way. Potencies beside an inconclusive call are fits to weak or partial responses and may not hold up.
# Test: qHTS Assay for Inhibitors of Hepatitis C Virus (HCV)
# Conditions: Huh7.5.1 HCVcc-Cre (HCVcc is cell-culture hepatitis C virus) infection, luciferase reporter, 44 h; activity change, negative = inhibition: at 41.8 µM (top of the series)
# How it was run: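 A cell-based infection assay in which seeded cells (1,000 per well) receive test compound after 4 h, are inoculated with HCVcc-Cre at approximately 0.5 moi, and are incubated 44 h before luminescence detection.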
# % is set by controls: 0 for no effect and ±100 for the full control effect; potency is the fitted concentration of half-maximal effect; tags give direction and shape of the fitted curve.
SMILES,Potency,"activity change, negative = inhibition"
O=C(C[C@@H]1C/C=C/CC[C@H](Cc2ccc(F)cc2)C(=O)OCCNC1=O)N[C@H](CO)Cc1ccccc1,active: 10 µM,
O=C1NC(=O)/C(=C\c2ccc(N3CCOCC3)o2)N1,,inactive: 10.5%
Cc1ccc2nc(N(CCCN(C)C)C(=O)c3cc(-c4cccs4)nc4ccccc34)sc2c1,active: 11.2 µM,
COc1ccc2nc(SCC(N)=O)[nH]c2c1,,inactive: 14.6%
Cc1ccc2nc(NCCO)nc(-c3ccccc3)c2c1,"inconclusive: 31.6 µM [inhibitor, single point]",
Cc1cc(Cl)ccc1C1=CC(=O)C[C@H](c2ccc(F)cc2)C1,,inactive: 4.9% [at 8.37 µM]
COc1cccc(CNc2ccc(S(N)(=O)=O)cc2)c1OCc1ccccc1F,"inconclusive: 31.6 µM [inhibitor, single point]",
CCOC(=O)C1(C(=O)OCC)NC(=O)CC1C(C)C (configuration not stated),,inactive: 4.17%
COC(=O)c1ccc(-n2c(C)cc(C(=O)CCl)c2C)cc1,active: 6.31 µM,
CC1(C)NC(=O)N(CC(=O)Nc2nc(-c3ccc(F)cc3)cs2)C1=O,active: 3.55 µM,
Cc1ccc(NC(=S)N/N=C2\CCCCC2C)cc1 (configuration not stated),"inconclusive: 7.08 µM [inhibitor, partial curve]",
COc1ccccc1NS(=O)(=O)c1cc(NC(=O)/C=C/c2cccs2)ccc1N1CCOCC1,"inconclusive: 2.51 µM [inhibitor, full curve]",
COc1ccc(/C=C/C2=CC(C)(C)NC(=S)N2)cc1,"inconclusive: 1.58 µM [inhibitor, full curve]",
CCc1cccc2c(C#N)cn(CC(=O)N3CCOCC3)c12,"inconclusive: 11.2 µM [inhibitor, partial curve, poor fit]",
CN(c1ccc(C(=O)Nc2ccc3c(c2)n(C)c(=O)n3C)cc1)S(C)(=O)=O,,inactive: 34.4%
CC(C)c1ccc(OCc2cccc(C(=O)N/N=C/c3cccnc3)c2)cc1,"inconclusive: 6.31 µM [inhibitor, partial curve]",
CCOc1ccc2oc(-c3ccccc3)c(C(=O)N(C)C)c2c1,"inconclusive: 3.16 µM [inhibitor, single point]",
CC1CN(S(=O)(=O)c2cccc(C(=O)NCC3COc4ccccc4O3)c2)CC(C)O1 (configuration not stated),"inconclusive: 14.1 µM [inhibitor, partial curve]",
COC(CN(C(=O)CCl)C(C(=O)NC1CCCC(C)C1C)c1ccc(C)cc1)OC (configuration not stated),"inconclusive: 20 µM [inhibitor, partial curve, poor fit]",
O=C(NC12CC3CC(CC(C3)C1)C2)N1CCN(c2nc(-c3ccccc3)cs2)CC1,,inactive: -24.1%
Cc1ccc2c(c1)C(=O)C(=O)N2Cc1ccc(C(F)(F)F)cc1,"inconclusive: 11.2 µM [inhibitor, single point]",
COc1ccccc1/C=C\C(=O)NCC(=O)N/N=C/c1ccc(O)cc1O,,inactive: -21.9%
CCCN(CCC)c1nc2ccccc2nc1C(C#N)C(=O)OCCOC (configuration not stated),"inconclusive: 10 µM [inhibitor, partial curve]",
CCOc1ccc(NC(=O)NCc2cccnc2)cc1,,inactive: 8.9%

SMILES,Potency,"activity change, negative = inhibition"
O=C1CC(N(CCc2ccccc2)C(=S)Nc2cc(Cl)ccc2Cl)C(=O)N1c1c(Cl)cccc1Cl (configuration not stated),"inconclusive: 14.1 µM [inhibitor, single point]",
CC1C(=O)N2CCCc3cc(S(=O)(=O)N4CCN(c5ccccc5F)CC4)cc1c32 (configuration not stated),"inconclusive: 20 µM [inhibitor, single point]",
Cc1cccc(OCCN2C(=O)C(=O)c3cc(C)ccc32)c1,"inconclusive: 8.91 µM [inhibitor, partial curve]",
CCOc1ccccc1NC(=O)NC1CC2CCCC(C1)N2Cc1nnnn1CCc1ccccc1 (configuration not stated),"inconclusive: 7.94 µM [inhibitor, partial curve] and inconclusive: 3.98 µM [inhibitor, partial curve]",
NS(=O)(=O)c1ccc(NCc2c(F)cccc2Cl)cc1,,inactive: 6.91%
C/C(CC(=O)Nc1ccc([N+](=O)[O-])cc1)=N/NC(=O)C1CC12CCC2 (configuration not stated),,inactive: -2.98%
COc1ccc(N2CCN(C(=O)c3ccc4c(Cl)c5c(nc4c3)CCCC5)CC2)cc1,"inconclusive: 11.2 µM [inhibitor, single point]",
[O-][N+]1=C2CCC/C(=N\O)C2=NC12CCCCC2,,inactive: 20.6%
CCOC(=O)C1(CCCc2ccccc2)CCN(CCCn2cccn2)CC1,"inconclusive: 31.6 µM [inhibitor, single point]",
CCOC(=O)c1ccc2c(c1)N(Cc1ccccc1C)C(=O)c1ccccc1S2=O (configuration not stated),"inconclusive: 15.8 µM [inhibitor, single point]",
Cc1ccc2nc(SCCC#N)nc(C)c2c1,active: 10 µM,
COc1cc(C(=O)NCc2nnc(SCC(=O)Nc3cccc(C(F)(F)F)c3)o2)cc(OC)c1OC,,inactive: -17.5%
CC(C)Cn1c(N)c(C(=O)COC(=O)c2cc(-c3ccccc3)nc3ccccc23)c(=O)n(C)c1=O,"inconclusive: 3.16 µM [inhibitor, full curve, poor fit]",
O=C(Nc1ccccc1C(=O)NCCc1ccccc1)c1cnccn1,,inactive: -15.7%
CC(NC(=O)/C(C#N)=C/c1ccc([N+](=O)[O-])o1)c1ccccc1 (configuration not stated),"inconclusive: 22.4 µM [inhibitor, single point]",
O=S(=O)(c1ccc(N2CCOCC2)cc1)N1CCOCC1,,inactive: 8.94%
O=c1[nH]c(=O)n(-c2cc(Br)c(O)c(Br)c2)cc1Br,,inactive: 16.6%
CCOC(=O)c1cnc(-n2nc(C)cc2C)nc1Nc1ccc(N(C)C)cc1,"inconclusive: 20 µM [inhibitor, single point]",
CCc1ccc(OC)c(-c2csc(N)n2)c1,"inconclusive: 2.24 µM [inhibitor, full curve]",
Cc1cc(=O)n2[nH]c(-c3ccc(C(C)(C)C)cc3)cc2n1,active: 10 µM,
CCC(C)(C(=O)NC1CCCCC1)N(CC1CCCO1)C(=O)Cc1cccs1 (configuration not stated),,inactive: 9.76%
O=C(Nc1cccnc1)c1ccc(N2CCOCC2)c([N+](=O)[O-])c1,"inconclusive: 31.6 µM [inhibitor, single point]",
Nc1ccc(Cc2ccc([N+](=O)[O-])cc2)cc1,,inactive: -23.7%
CCN(Cc1ccccc1)S(=O)(=O)c1cc(C(=O)NCC2CCCCC2)ccc1OC,"inconclusive: 12.6 µM [inhibitor, single point]",

SMILES,Potency,"activity change, negative = inhibition"
Cc1noc(C)c1CSc1nc2ccccc2c(=O)n1-c1ccc(F)cc1F,"inconclusive: 31.6 µM [inhibitor, single point]",
COC(=O)c1ccc(NC(=S)NC(=O)c2cccnc2)cc1,,inactive: 8.13%
CCN1CCN(c2ccc(NC(=O)c3cc(S(=O)(=O)N4CCCC4)ccc3Cl)cc2)CC1,"inconclusive: 11.2 µM [inhibitor, single point]",
Cc1ccc(C(=O)NC2CC3CCCC(C2)N3C(=O)NC2CCCCC2)cc1 (configuration not stated),"inconclusive: 1 µM [inhibitor, partial curve]",
CCOC(=O)c1c(NC(=O)c2ccccc2N(C)S(=O)(=O)c2ccccc2)sc2c1CCCC2,"inconclusive: 2.82 µM [inhibitor, full curve]",
O=C(CN1C(=O)NC2(CCCC2)C1=O)N1CCN(S(=O)(=O)c2cccc(C(F)(F)F)c2)CC1,,inactive: 2.36%
COc1ccc(NC(=O)C2CC(c3ccc(Cl)cc3)=NO2)cc1OC (configuration not stated),"inconclusive: 22.4 µM [inhibitor, single point]",
Cn1c(NCc2ccco2)nc2c1c(=O)n(Cc1ccc(Cl)c(Cl)c1)c(=O)n2C,,inactive: 15%
Nc1nc(-c2ccco2)nn1C(=O)c1ccc(F)cc1,"inconclusive: 11.2 µM [inhibitor, single point]",
Cc1ccccc1/C(N)=N/OC(=O)c1ccc(F)cc1,"inconclusive: 22.4 µM [inhibitor, single point]",
O=C(CC12CC3CC(C1)CC(CC(=O)NC1=NCCS1)(C3)C2)NC1=NCCS1,,inactive: 4.43%
CC(NC(=O)c1nn(C)c(=O)c2ccccc12)c1ccccc1 (configuration not stated),"inconclusive: 14.1 µM [inhibitor, single point]",
Cc1ccc(S(=O)(=O)N2CCCCC2)cc1NC(=O)CNCc1ccco1,,inactive: -5.19%
Cc1ccc(-c2nc3ccccc3[nH]2)cc1NC(=O)c1sc2ccccc2c1Cl,"inconclusive: 8.91 µM [inhibitor, partial curve]",
c1ccc(N2CCCCC2)c(Nc2nc3ccccc3n3cnnc23)c1,active: 6.31 µM,
CC1(c2nnc(-c3ccncc3)o2)CC(c2ccc([N+](=O)[O-])cc2)=NO1 (configuration not stated),"inconclusive: 5.01 µM [inhibitor, single point]",
CCN1CCCC1CNC(=O)c1ccc2c(c1)NC(=O)/C(=C\c1ccc(OC)c(OC)c1)S2 (configuration not stated),active: 0.794 µM,
COc1ccc(Nc2ccc(S(=O)(=O)N3CCCCC3)cc2[N+](=O)[O-])cc1OC,"inconclusive: 11.2 µM [inhibitor, partial curve]",
COC(=O)c1ccccc1NC(=O)c1cccc(NC(=O)C(C)C)c1,"inconclusive: 11.2 µM [inhibitor, partial curve, poor fit]",
C=CCNc1nc(SCC=C)nc2ccsc12,"inconclusive: 35.5 µM [inhibitor, single point]",
Cc1ccc(-c2csc(NC(=O)c3ccc4c(=O)n5c(nc4c3)CCCCC5)n2)cc1,"inconclusive: 5.62 µM [inhibitor, single point]",
O=C(Nc1ccccc1)C1Cc2ccccc2CN1C(=O)c1ccco1 (configuration not stated),,inactive: -5.63%
c1nc(C2CCCCC2)cc2cc3c(cc12)OCO3,,inactive: -13.8%
CCOC(=O)C1=C(C)Nc2sc(C(=O)c3ccc(C)cc3)c(N)c2C1c1ccc(C(=O)OC)cc1 (configuration not stated),"inconclusive: 10 µM [inhibitor, partial curve]",
